Results published in PubChem BioAssay AID1461 (National Center for Advancing Translational Sciences (NCATS), 2008).
Hit rate of the full screen: of about 220,000 compounds, about 2,300 (1%) were called active. This list was built around the results that the source calls inconclusive (neither active nor inactive); the mix of calls is not that of the screen. The call rests on the fitted dose curve; in most records, active means well fitted inhibition curve with a large enough effect; inconclusive means small, poorly fitted or top-dose-only effect, or effect the other way; inactive means no such curve, though single readings can be large or run the other way. No potency is given beside an inconclusive call; the fits are too rough. The source holds several records for some structures; these can differ, active in one and inactive in another.
Further: nearly all actives have a fitted effect of over 50% in size.
On the % scale 0 is the no-effect control and ±100 the full control effect; potency means the concentration at half of the fitted maximal effect; tags describe the fitted curve by direction and shape.

These molecules were tested against Neuropeptide S receptor (Homo sapiens) (UniProt Q6W5P4) (assay: qHTS Assay for Antagonists of the Neuropeptide S Receptor: cAMP Signal Transduction). Conditions: CHO-NPSR cells, cAMP TR-FRET, antagonist mode; activity change, negative = inhibition: at 38.3 µM (top of the series) unless noted.
Chain of UniProt Q6W5P4 (Q6W5P4 whole entry, looked up): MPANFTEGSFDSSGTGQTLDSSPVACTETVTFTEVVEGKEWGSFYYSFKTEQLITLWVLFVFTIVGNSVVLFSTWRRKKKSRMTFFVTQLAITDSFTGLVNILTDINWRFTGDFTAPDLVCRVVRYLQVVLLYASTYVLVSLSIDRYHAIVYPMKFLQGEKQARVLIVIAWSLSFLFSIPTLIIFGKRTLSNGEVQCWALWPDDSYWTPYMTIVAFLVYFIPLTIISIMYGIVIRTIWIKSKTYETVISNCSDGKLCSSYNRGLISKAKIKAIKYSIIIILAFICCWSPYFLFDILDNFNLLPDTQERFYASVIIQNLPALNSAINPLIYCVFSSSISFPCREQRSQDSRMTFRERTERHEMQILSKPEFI
In the case of `CCN1C(=O)/C(=C2\C=Cc3ccccc3N2CC)SC1=S`, the Potency is reported as inconclusive [inhibitor, single point]. `Cc1c(N=C2C=CC(=O)c3ccccc32)c(=O)n(-c2ccccc2)n1C` was tested, and the Potency was active: 10 µM. In the case of `COc1cccc(/C=N/NC(=O)c2csc(-n3nc(C)cc3C(F)(F)F)n2)c1`, the Potency is reported as “inactive”. `O=C1NC(=S)S/C1=C\c1ccc(SCc2ccco2)o1` was tested, and the Potency was “inactive”. In the case of `COCc1cc(=O)[nH]c(/N=C(\N)Nc2cccc(Cl)c2)n1`, the Potency is reported as “inactive”. `COc1ccc2[nH]c(=O)c(CN(C(=O)NC3CCCCC3)C3CCCCC3)cc2c1` was tested, and the Potency was inconclusive [inhibitor, single point]. In the case of `COc1cc(/C=N/Nc2nc3ccccc3[nH]2)cc(OC)c1O`, the Potency is reported as inconclusive [inhibitor, single point]. For `CCCCCCCCCCCC(=O)NC(C(=O)OCC)C(O)c1cccc([N+](=O)[O-])c1` (centres undefined), the Potency was inconclusive [inhibitor, partial curve]. `Cc1nc(N/N=C/c2ccccn2)sc1C` was tested, and the Potency was active: 3.98 µM. `CCCNS(=O)(=O)c1ccc(CCC(=O)Nc2ccc3c(c2)OCO3)cc1` was tested, and the Potency was “inactive”. For `CCC1CCCCN1C(=O)CSc1nnc(-c2c[nH]c3ccccc23)o1` (centres undefined), the Potency was inconclusive [inhibitor, partial curve]. In the case of `CC(C)C[C@H](N)c1nnc(S(=O)(=O)Cc2ccc(F)cc2)o1`, the Potency is reported as inconclusive [inhibitor, single point]. In the case of `COc1cccc(NC(=S)N(CCCN2CCN(C)CC2)Cc2ccco2)c1`, the Potency is reported as “inactive”. In the case of `CCC1NC(=S)N(C2CCCCC2)C1=O` (centres undefined), the Potency is reported as “inactive”. In the case of `O=C(CC1OC(=O)c2ccccc21)Nc1ccccc1N1CCOCC1` (centres undefined), the activity change, negative = inhibition is reported as inactive: 4.59% [at 7.67 µM]. `Cc1nn(-c2ccccc2)c(N2CCCC2)c1/C=N/NC(=O)c1cc(-c2cccnc2)nc2ccccc12` was tested, and the Potency was inconclusive [inhibitor, single point]. With `CCOC(=O)N1CCC(N2Cc3cccc(C(=O)Nc4ccc(CC)cc4)c3C2=O)CC1` the Potency was inconclusive [inhibitor, single point]. In the case of `CS(=O)c1ccccc1COC(=O)Nc1ccc(Cl)cc1` (centres undefined), the Potency is reported as “inactive”. For `CCNS(=O)(=O)c1ccc(CCC(=O)Nc2cc(Cl)ccc2Oc2ccccc2)cc1`, the Potency was inconclusive [inhibitor, partial curve]. In the case of `C=CCn1c(=N)n(CC(=O)OC)c2ccccc21`, the Potency is reported as “inactive”. `Cc1ccc(S(=O)(=O)N2CCCC2C(=O)Nc2nc3ccccc3s2)cc1` (centres undefined) was tested, and the Potency was inconclusive [inhibitor, single point]. `Cc1ccc(C)c(NC(=O)CSc2nnc(-c3ccccc3C)o2)c1` was tested, and the Potency was inconclusive [inhibitor, single point]. `O=C(c1ccc(Cl)cc1)c1oc2ccccc2c1CS(=O)c1ccc(Cl)cc1` (centres undefined) was tested, and the Potency was inconclusive [inhibitor, partial curve]. In the case of `O=C(c1cc(C2CC2)on1)N1CCN(c2ccccc2)CC1`, the Potency is reported as inconclusive [inhibitor, partial curve, poor fit]. In the case of `CN(CC(=O)N1CCc2ccccc21)S(=O)(=O)c1ccc(Br)s1`, the Potency is reported as “inactive”. For `COc1ccc(C(C)=O)cc1CSc1nnc(-c2ccccc2O)n1-c1ccccc1`, the Potency was inconclusive [inhibitor, partial curve]. For `COC(=O)c1c(NC(=O)c2ccc(OC(C)C)cc2)sc2c1CC(C)(C)NC2(C)C`, the Potency was inconclusive [activator, partial curve]. In the case of `CC(C)NC(=S)NN=C1CCCCCCCCCCC1`, the Potency is reported as inconclusive [inhibitor, single point]. With `Cn1nc(-c2ccccc2)c(C#N)c1Sc1cccc(Cl)c1` the Potency was inconclusive [inhibitor, partial curve]. In the case of `COc1ccccc1-c1nc(C#N)c(N2CCN(Cc3ccccc3)CC2)o1`, the Potency is reported as inconclusive [inhibitor, partial curve]. In the case of `Cc1cc2nc(C3CCCN(C(=O)NCc4ccccc4)C3)[nH]c2cc1C` (centres undefined), the Potency is reported as “inactive”. In the case of `Nc1nc(-c2ccccn2)nc(N)c1Cc1ccc(Cl)cc1Cl`, the Potency is reported as “inactive”. In the case of `Oc1[nH]c(=S)sc1/C=C1\C(c2ccccc2)=Nc2ccccc21`, the Potency is reported as inconclusive [inhibitor, single point]. With `Nc1nc(CN2CCN(Cc3ccccc3)CC2)nc(Nc2ccc3c(c2)OCCO3)n1` the Potency was inconclusive [inhibitor, single point]. `O=C(OCn1ncc(Br)c(Br)c1=O)c1ccc(F)cc1` was tested, and the Potency was active: 2.51 µM. In the case of `C=CCc1cccc(CNc2nc3ccccc3n2C(C)C)c1O`, the Potency is reported as inconclusive [inhibitor, single point]. `COc1ccc(CCNC(=O)CCn2c(SCC#N)nc3ccccc3c2=O)cc1OC` was tested, and the Potency was inconclusive [inhibitor, full curve, poor fit]. `COc1cccc(N(CC(=O)NC2CCCC2)C(=O)Cn2nnc(-c3ccc(C)cc3)n2)c1` was tested, and the Potency was inconclusive [inhibitor, single point]. In the case of `CC(C)CN(Cc1cc(=O)oc2cc(-c3ccccc3)c(O)cc12)CC(C)C`, the Potency is reported as inconclusive [inhibitor, single point]. For `CSc1nsc(/C=C/Nc2ccc(O)cc2C)c1C#N`, the Potency was “inactive”. With `CCc1ccccc1N(C(C)=O)c1nc(CN=C=S)cs1` the Potency was inconclusive [inhibitor, single point]. With `CCOc1ccc2nc(Cl)c(CN(C(=O)c3cnccn3)C3CCCC3)cc2c1` the Potency was inconclusive [inhibitor, single point]. With `O=C1C=C(NCc2ccccc2)c2ccccc2C1=O` the Potency was inconclusive [activator, single point]. In the case of `Cc1ccc(-c2nnc(Nc3ccc(CC(N)=O)cc3)c3ccccc23)cc1`, the Potency is reported as inconclusive [inhibitor, single point]. With `O=C(c1nn2c(C(F)(F)F)cc(-c3cccs3)nc2c1Br)N1CCCc2ccccc21` the Potency was “inactive”. `CCOC(=O)c1c(NC(=O)c2cc3n(n2)C(C(F)(F)F)CC(c2cccs2)N3)sc(C)c1C` (centres undefined) was tested, and the Potency was inconclusive [inhibitor, single point]. `Cc1cccc(Cn2cc(SCC(=O)Nc3nccs3)c3ccccc32)c1` was tested, and the Potency was inconclusive [inhibitor, partial curve, poor fit]. In the case of `Oc1ccc(-c2cn3c(n2)SCC3)cc1O`, the Potency is reported as inconclusive [inhibitor, partial curve]. `COc1ccc(C(=O)c2c[nH]c3ccccc23)cc1` was tested, and the Potency was inconclusive [inhibitor, single point]. With `COc1ccc(OC)c(NC(=O)Cn2cc(C#N)c3cc(Br)ccc32)c1` the Potency was inconclusive [inhibitor, single point]. In the case of `Cn1cc(Br)c(NC(=O)/C=C/C(=O)O)n1`, the Potency is reported as inconclusive [activator, single point]. `CCOC(=O)c1ccc(NC(=S)N2CCN(c3ccc(N4CCOCC4)nn3)CC2)cc1` was tested, and the Potency was inconclusive [inhibitor, single point]. For `O=C1CC(Nc2ccc(N3CCOCC3)cc2)C(=O)N1c1cccc(C(F)(F)F)c1` (centres undefined), the Potency was “inactive”. With `Cc1cc(-c2csc3nc[nH]c(=S)c23)cc(C)c1C` the Potency was inconclusive [activator, partial curve]. `COc1ccc(-c2nn(-c3ccccc3)cc2C(=O)Nc2nccs2)cc1OC` was tested, and the Potency was inconclusive [inhibitor, single point]. For `CN(C)S(=O)(=O)c1ccc(Nc2ccc(-c3ccc4c(c3)OCCO4)nn2)cc1`, the Potency was inconclusive [inhibitor, single point]. For `COc1cc(C(=O)N2CCN(c3cccc(C)c3C)CC2)cc(OC)c1OC`, the Potency was inconclusive [activator, partial curve]. `Cc1nc2ccccn2c1C(=O)N/N=C/c1cc(C)n(-c2ccc(Cl)cc2)c1C` was tested, and the Potency was inconclusive [activator, full curve, poor fit]. `Cc1cc(C)nc(NC(=O)/C=C/c2ccc(Cl)cc2Cl)c1` was tested, and the Potency was inconclusive [inhibitor, partial curve]. `C/C(Cn1cnc([N+](=O)[O-])n1)=N\NC(=O)c1ccc(Br)cc1` was tested, and the Potency was “inactive”. In the case of `CCOC(=O)c1c(-n2c(C)cc(C=O)c2C)sc2c1CCCC2`, the Potency is reported as inconclusive [inhibitor, single point]. With `CC(C)N(Cc1cc2ccccc2[nH]c1=O)C(=O)C1CCCCC1` the Potency was inconclusive [activator, full curve, poor fit]. With `Cn1c(=O)c(Nc2ccc(O)cc2)c2c3c(cccc31)C(=O)c1ccccc1-2` the Potency was “inactive”. `CC1(C)CC(=O)c2sc(NC(=O)CCS(=O)(=O)c3ccccc3)nc2C1` was tested, and the Potency was “inactive”. For `O=[N+]([O-])c1ccccc1C1Nc2cccc3cccc(c23)N1`, the Potency was “inactive”. For `CC[C@H](C)C(=O)O[C@H]1CCC=C2C=C[C@H](C)[C@H](CC[C@@H]3C[C@@H](O)CC(=O)O3)[C@H]21`, the Potency was active: 15.8 µM. `CCCCOC(=O)Cn1c(=O)c2c(nc3n2CCCCN3c2ccc(C)cc2)n(C)c1=O` was tested, and the Potency was inconclusive [inhibitor, partial curve]. For `O=C(CC12CC3CC(CC(C3)C1)C2)Nc1ccc2c(c1)COC2=O`, the Potency was inconclusive [inhibitor, partial curve, poor fit]. In the case of `Cc1ccc(C(C)C)c(OCc2nn(CC(=O)c3ccc(Cl)cc3)c3[n+]2CCCCC3)c1`, the Potency is reported as inconclusive [inhibitor, single point].
